Reference: ChEMBL document CHEMBL4888484, “Replenishing the malaria drug discovery pipeline: Screening and hit evaluation of the MMV Hit Generation Library 1 (HGL1) against asexual blood stage Plasmodium falciparum ,using a nano luciferase reporter read-out” (2022)
Out of some 150,000 compounds screened, about 540 (0.36%) showed an effect of 50% or more. Some of the results follow.

system: Plasmodium falciparum; assay: Primary screen in NF54 nanoGlo assay, in single point, at 2uM, 72h; a lower Z score goes with more inhibition; format: functional, Erythrocyte; settings: timepoint 72 hour

| Compound | % Inhibition | Z score |
| --- | --- | --- |
| c1ccc2c(c1)C[C@H](CNCc1cnc(N3CCOCC3)nc1)CO2 | -4% | 0.63 |
| CC(C)(C)c1nc(CNS(=O)(=O)C[C@H]2CCCCC2(F)F)n[nH]1 | 2% | -0.38 |
| Cc1cccc(C)c1Nc1c(-c2ccccn2)nc2ncccn12 | -15% | 2.27 |
| O=C(c1ccncc1)N(c1cccc(F)c1)C1CCOCC1 | 5% | -0.6 |
| Cc1cccc(C)c1C(=O)NC1CCN(C(=O)c2cn[nH]c2)CC1 | -11% | 1.48 |
| CN(Cc1cnc2ccccc2c1)C[C@H]1CCCN1C | -10% | 1.03 |
| COCCN1CCN(C(=O)c2ccc(C#N)s2)CC1=O | -12% | 1.52 |
| CCN=C(NCc1ncnn1C)N1CCN(c2cccc(C)c2)CC1 | 0% | 0.06 |
| Cc1cc(C(=O)N2CCC[C@H](Nc3ccc4c(c3)OCCO4)C2)nn1C | -24% | 2.14 |
| Cn1ccnc1C(NS(=O)(=O)N1CC2CCC1C2)C(C)(C)CO (centres undefined) | -2% | 0.18 |
| Cc1cc(C(=O)NC2CCCCCC2)sc1C | 0% | 0.04 |
| Cc1ccsc1C(=O)N[C@H]1CCN(CC(=O)N(C)C)C[C@@H]1O | -5% | 0.78 |
| COCC(=O)N[C@@H]1CN(C(=O)Cc2cccc(C(C)C)c2)C[C@H]1c1nccn1C | -7% | 1.06 |
| O=C(NC[C@@H](CO)CC1CCCC1)C1=COCCO1 | -13% | 2.39 |
| COc1cccc([C@H]2Nc3ccccc3-n3cc4c(=O)n(C)c(=O)n(C)c4c32)c1 | 2% | -0.32 |
| CC(C)C1(CNC(=O)Nc2nn[nH]c2C(N)=O)CC1 | -7% | 0.94 |
| Cc1cnn(CCC(=O)Nc2nnc(CC3CCCCC3)s2)c1 | 0% | -0.02 |
| O=C(Nc1ccc(F)c(F)c1F)c1cc(O)ncn1 | -5% | 0.79 |
| Cc1ccc(OC(=O)c2ccccc2N2C(=O)c3ccccc3C2=O)cc1C | 0% | 0 |
| CS(=O)(=O)NCCCn1ccc2cccnc21 | -14% | 2.18 |
| Cc1noc(C(C)(C)NC(=O)Nc2c[nH]nc2-c2nccs2)n1 | 37% | -5.4 |

| Compound | % Inhibition | Z score |
| --- | --- | --- |
| NC(=O)CO[C@@H]1CO[C@H]2[C@@H]1OC[C@@H]2NC(=O)NCc1ccccc1 | 25% | -2.83 |
| CN(C)c1nc(CNC(=O)Cn2cncn2)nc(N2CCOCC2)n1 | -18% | 2.3 |
| Cc1cnc(COC(=O)CN(C)C(=O)OCc2ccccc2)o1 | -2% | 0.36 |
| CC(=O)N[C@@H](CCC(N)=O)C(=O)N(C)c1ccc(C(C)(C)C)cc1 | -10% | 1.65 |
| COC[C@H]1[C@H](NC(=O)c2csc(C(C)C)c2)[C@H]2CCO[C@H]21 | -3% | 0.59 |
| CCn1cnnc1[C@H](C)NC(=O)Nc1cc(NS(C)(=O)=O)ccc1F | -17% | 2.12 |
| COC(=O)c1cccn1C(=O)c1ccc(Cl)cc1 | -6% | 0.77 |
| COc1ccc(CNC(=O)CN2c3ccccc3S(=O)(=O)c3ccccc32)cc1 | -5% | 0.57 |
| CN(CCO)CCN(C)C(=O)Nc1nc2c(s1)CCCC2(C)C | -4% | 0.86 |
| Clc1cnc(N2CCCN(c3ccc4nncn4n3)CC2)nc1 | -21% | 2.4 |
| CCc1ncc(CN2CC[C@@]3(CCCN(Cc4cccc(OC)c4)C3=O)C2)cn1 | 6% | -0.83 |
| Cc1cc(NC(=O)CCC2CCC(C)O2)nc(=O)[nH]1 (centres undefined) | -7% | 1.07 |
| O=C(CO)N[C@H]1CCCC[C@H]1C(F)(F)F | -9% | 1.15 |
| NC(=O)C1CN(c2nc3ccccc3s2)CC1C(N)=O (centres undefined) | 28% | -3.2 |
| COc1cccc(N2CCN(C(=O)c3ccc4c(c3)N(Cc3ccccc3)C(=O)CO4)CC2)c1 | -8% | 1.01 |
| CC[C@H](C)NC(=O)c1ccc(OCC2CCOCC2)nc1 | -14% | 2.67 |
| COc1nn(C)cc1C(=O)Nc1nnc(C)s1 | 3% | -0.39 |
| CCN1CCN(CCCNc2ncnc3onc(-c4cccc(Cl)c4)c23)CC1 | 3% | -0.44 |
| CC(C)[C@H](NS(=O)(=O)c1cccc(Cl)c1)C(=O)NCC1(S(C)(=O)=O)CC1 | 32% | -3.58 |
| COC(=O)c1cccc(CN2CCC[C@H](C(=O)N3CCCC3)C2)n1 | -2% | 0.42 |
| O=C(Cn1c(=O)sc2cc(S(=O)(=O)N[C@H]3CCCc4ccccc43)ccc21)N1CCCC1 | 15% | -1.78 |
